# Results from the supplement of paper PMC9135407.
# Where “and” joins values, the source holds several entries; their conditions need not be identical. Equal values may be shown once. Where a name gives a salt, the structure may show the parent alone. Hit rate of the full screen: of about 5,800 compounds, about 620 (11%) showed activity.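 The calls were made as follows: active = score above a cut-off or among the top three wells of a plate; in these data no inactive exceeds 0.85.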 Only a part is listed here, and it is no random draw.
# Test system: primary human hepatic stellate cells (donor 1)
# Assay: scaled lipid accumulation score (0 = DMSO-like, 1 = nortriptyline-like); higher = stronger HSC inactivation (lipid re-accumulation), active = hit call of the paper
# Conditions: 48 h
# [1] = library stock concentration: 3.33 mM
# [2] = library stock concentration: 10 mM
# [3] = library stock concentration: 5.1 mM
# [4] = library stock concentration: 1 mM
# [5] = library stock concentration: 2 mM
smiles,measurement,setting,value
CCN(C(=O)c1c(O)c2c(Cl)cccc2n(C)c1=O)c1ccccc1 [Laquinimod],scaled lipid accumulation score,[1],inactive: ≤ 0
same,scaled lipid accumulation score,[2],inactive: ≤ 0
Cl.N/C(=N\C(=O)c1nc(Cl)c(N)nc1N)NCc1ccccc1 [Benzamil hydrochloride],scaled lipid accumulation score,[2],active: 1.09
CN1CC(=O)N2[C@H](c3ccc4c(c3)OCO4)c3[nH]c4ccccc4c3C[C@@H]2C1=O,scaled lipid accumulation score,[2],inactive: ≤ 0
CN1CC(=O)N2[C@H](c3ccc4c(c3)OCO4)c3[nH]c4ccccc4c3C[C@@H]2C1=O [Tadalafil],scaled lipid accumulation score,[1],inactive: ≤ 0
same,scaled lipid accumulation score,[2],inactive: ≤ 0
C1CCC(C(CC2CCCCN2)C2CCCCC2)CC1 (centres undefined) [Perhexiline maleate],scaled lipid accumulation score,,inactive: 0.428
same,scaled lipid accumulation score,[3],inactive: 0.454
same,scaled lipid accumulation score,[2],inactive: 0.576
COc1ccccc1N1CCN(CCCCNC(=O)c2ccc(-c3ccc(C(C)=O)cc3)cc2)CC1,scaled lipid accumulation score,[2],active: 0.934
CC(C)NCC(O)COc1ccc(CCOCC2CC2)cc1 (centres undefined),scaled lipid accumulation score,[2],inactive: 0.332
CC(C)NCC(O)COc1ccc(CCOCC2CC2)cc1 (centres undefined) [Betaxolol],scaled lipid accumulation score,[1],inactive: ≤ 0
same,scaled lipid accumulation score,[2],inactive: 0.214
CC(C)NCC(O)COc1ccc(CCOCC2CC2)cc1 (centres undefined) [Betaxolol hydrochloride],scaled lipid accumulation score,,inactive: 0.503
same,scaled lipid accumulation score,[2],inactive: 0.758 and inactive: 0.394
COc1cccc(-c2cc(F)ccc2[C@H]2Cc3nc(N)nc(C)c3C(=O)N2)n1,scaled lipid accumulation score,[2],active: 0.937
CCc1nc(N)nc(N)c1-c1ccc(Cl)cc1 [Pyrimethamine],scaled lipid accumulation score,,inactive: 0.065
same,scaled lipid accumulation score,[1],inactive: 0.057
same,scaled lipid accumulation score,library stock concentration: 8 mM,inactive: 0.011
same,scaled lipid accumulation score,[2],inactive: ≤ 0
CCc1nc(N)nc(N)c1-c1ccc(Cl)cc1,scaled lipid accumulation score,[2],inactive: 0.007
Cc1c(C(=O)NN2CCCCC2)nn(-c2ccc(Cl)cc2Cl)c1-c1ccc(I)cc1,scaled lipid accumulation score,[4],inactive: ≤ 0 and inactive: ≤ -0.021
same,scaled lipid accumulation score,[1],inactive: ≤ 0
same,scaled lipid accumulation score,[2],inactive: ≤ 0 and inactive: 0.147 and inactive: ≤ -0.006
CC(=O)[C@@]1(O)CC[C@H]2[C@@H]3C[C@H](C)C4=CC(=O)C=C[C@]4(C)[C@@]3(F)[C@@H](O)C[C@@]21C [Fluorometholone],scaled lipid accumulation score,,inactive: ≤ 0
same,scaled lipid accumulation score,library stock concentration: 5.3 mM,inactive: 0.019
same,scaled lipid accumulation score,[2],inactive: ≤ 0
Cn1cc(C2=C(c3ccc(Cl)cc3Cl)C(=O)NC2=O)c2ccccc21,scaled lipid accumulation score,[5],active: 1.13
same,scaled lipid accumulation score,[2],active: 1.17
O=C(O)c1cn(C2CC2)c2cc(N3CCNCC3)c(F)cc2c1=O [Ciprofloxacin],scaled lipid accumulation score,library stock concentration: 6 mM,inactive: ≤ 0
same,scaled lipid accumulation score,[2],inactive: 0.016
O=C(O)c1cn(C2CC2)c2cc(N3CCNCC3)c(F)cc2c1=O [Ciprofloxacin hydrochloride],scaled lipid accumulation score,,inactive: 0.153
CCCn1c(=O)[nH]c(=O)c2[nH]cnc21 [3-n-Propylxanthine],scaled lipid accumulation score,[2],inactive: ≤ 0
OC[C@H]1O[C@@H](n2cnc3c(NC4CCCC4)ncnc32)[C@H](O)[C@@H]1O [N6-Cyclopentyladenosine],scaled lipid accumulation score,[2],inactive: ≤ 0 and inactive: ≤ -0.006
CN1CCN(C2CCN(C(=O)Nc3cc(Oc4ccc(NC(=O)C5(C(=O)Nc6ccc(F)cc6)CC5)c(F)c4)ccn3)CC2)CC1 [Golvatinib (E7050)],scaled lipid accumulation score,[1],active: 0.979
CCOc1nc2cccc(C(=O)OCc3oc(=O)oc3C)c2n1Cc1ccc(-c2ccccc2-c2noc(=O)[nH]2)cc1 [Azilsartan Medoxomil],scaled lipid accumulation score,[1],inactive: ≤ 0
same,scaled lipid accumulation score,[2],inactive: 0.184
O=c1c(-c2ccccc2)c1-c1ccccc1 [diphenylcyclopropenone],scaled lipid accumulation score,[2],active: 1.25
C[N+](C)(C)CC=O [Betaine aldehyde chloride],scaled lipid accumulation score,[2],inactive: 0.129
CN1c2cc(O)c(N=NC(N)=O)cc2CC1S(=O)(=O)O (centres undefined) [Carbazochrome sodium sulfonate (AC-17)],scaled lipid accumulation score,[1],inactive: ≤ 0
same,scaled lipid accumulation score,[2],inactive: ≤ 0
C#CCN[C@@H]1CCc2ccccc21 [Rasagiline Mesylate],scaled lipid accumulation score,[1],inactive: ≤ 0
same,scaled lipid accumulation score,[2],inactive: ≤ 0
C#CCN[C@@H]1CCc2ccccc21,scaled lipid accumulation score,[2],inactive: ≤ 0
"Cn1c(=O)[nH]c2ncn(C)c2c1=O [1,7-Dimethylxanthine]",scaled lipid accumulation score,[2],inactive: 0.055
C1COC(NC(C2CC2)C2CC2)=N1 [Rilmenidine hemifumarate],scaled lipid accumulation score,[2],inactive: ≤ 0
COc1cc(OC2CCN(C)CC2)ccc1Nc1ncc2c(n1)n(C1CCCC1)c(=O)n2C,scaled lipid accumulation score,[1],inactive: 0.441
N#C/C(=C\c1ccc(O)c(O)c1)C(=O)OCCc1cccs1,scaled lipid accumulation score,[2],inactive: ≤ 0
COc1ccc(NS(=O)(=O)c2sc3ccc(Cl)cc3c2C)cc1N1CCNCC1,scaled lipid accumulation score,[1],inactive: 0.383
"Cc1cc(C(C)(C)C)c(O)c(C(C)(C)C)c1 [2,6-di-t-butyl-4-methylphenol]",scaled lipid accumulation score,library stock concentration: 9.1 mM,inactive: 0.257
COc1ccc(-c2cc(=S)ss2)cc1 [Anethole-trithione (anetholtrithion)],scaled lipid accumulation score,library stock concentration: 8.3 mM,inactive: ≤ -0.006
O=C(O)Cc1c[nH]c2ccc(O)cc12 [5-Hydroxyindolacetic acid],scaled lipid accumulation score,[2],inactive: ≤ -0.07
CN(C)CCC=C1c2ccccc2COc2ccccc21 [Doxepin hydrochloride],scaled lipid accumulation score,,inactive: 0.633
same,scaled lipid accumulation score,[2],inactive: 0.495 and inactive: 0.707 and inactive: 0.72
CN(C)CCC=C1c2ccccc2COc2ccccc21 [Doxepin],scaled lipid accumulation score,[2],inactive: 0.731
CN1CCC[C@@H]1Cc1c[nH]c2ccc(CCS(=O)(=O)c3ccccc3)cc12 [Eletriptan HBr],scaled lipid accumulation score,[1],inactive: 0.194
same,scaled lipid accumulation score,[2],inactive: 0.202
CN1CCC[C@@H]1Cc1c[nH]c2ccc(CCS(=O)(=O)c3ccccc3)cc12 [Eletriptan hydrobromide],scaled lipid accumulation score,[2],inactive: 0.624
CC(C)[N+](C)(CCOC(=O)C1c2ccccc2Oc2ccccc21)C(C)C [Propantheline bromide],scaled lipid accumulation score,,inactive: ≤ 0
same,scaled lipid accumulation score,library stock concentration: 4.5 mM,inactive: ≤ 0
same,scaled lipid accumulation score,[2],inactive: 0.004 and inactive: ≤ 0
CC(C)[N+](C)(CCOC(=O)C1c2ccccc2Oc2ccccc21)C(C)C [Pro-Banthine],scaled lipid accumulation score,[2],inactive: 0.012
CC1=C(/C=C/C(C)=C/C=C/C(C)=C/C=C/C=C(C)/C=C/C=C(C)/C=C/C2=C(C)C(=O)CCC2(C)C)C(C)(C)CCC1=O [Canthaxanthin],scaled lipid accumulation score,library stock concentration: 3.5 mM,active: 1.25
COc1ccccc1Oc1c(NS(=O)(=O)c2ccc(C(C)(C)C)cc2)nc(-c2ncccn2)nc1OCCO [Bosentan Hydrate],scaled lipid accumulation score,[1],inactive: ≤ 0
same,scaled lipid accumulation score,[2],inactive: ≤ 0
COc1ccccc1Oc1c(NS(=O)(=O)c2ccc(C(C)(C)C)cc2)nc(-c2ncccn2)nc1OCCO [Bosentan],scaled lipid accumulation score,[1],inactive: ≤ 0
same,scaled lipid accumulation score,library stock concentration: 3.6 mM,inactive: ≤ 0
same,scaled lipid accumulation score,[2],inactive: ≤ -0.001
Nc1ccccc1S(N)(=O)=O [2-Aminobenzenesulfonamide],scaled lipid accumulation score,,inactive: ≤ 0
CCCCCCCCCCCCCCC(=O)N[C@H]1CCOC1=O [N-pentadecanoyl-L-Homoserine lactone],scaled lipid accumulation score,[4],inactive: ≤ 0
CS(=O)(=O)c1ccc(-c2cnc(N)c(C(=O)Nc3ccccc3)n2)cc1,scaled lipid accumulation score,[2],active: 0.907
Cc1ccc(NC2=CC(=O)c3sc(C)nc3C2=O)cc1 [Cdk4 Inhibitor III],scaled lipid accumulation score,[1],active: 0.942
COc1cc(N2CCC(N(C)C)CC2)ccc1Nc1ncc(Cl)c(Nc2ccccc2P(C)(C)=O)n1,scaled lipid accumulation score,library stock concentration: 80 uM,inactive: ≤ 0
same,scaled lipid accumulation score,library stock concentration: 400 uM,inactive: ≤ 0
same,scaled lipid accumulation score,[5],inactive: ≤ 0
same,scaled lipid accumulation score,[1],inactive: 0.308
same,scaled lipid accumulation score,[2],inactive: 0.412 and inactive: 0.385
OCc1cccnc1 [Nicotinyl alcohol tartrate],scaled lipid accumulation score,library stock concentration: 7.7 mM,inactive: ≤ 0
same,scaled lipid accumulation score,[2],inactive: 0.088
OCc1cccnc1,scaled lipid accumulation score,[2],inactive: ≤ 0
NCCCNCCCCNCCCN [Spermine tetrahydrochloride],scaled lipid accumulation score,[2],inactive: ≤ 0
CCN(CC)CCNC(=O)c1cc(Cl)c(N)cc1OC [Metoclopramide monohydrochloride],scaled lipid accumulation score,,inactive: ≤ 0
CCN(CC)CCNC(=O)c1cc(Cl)c(N)cc1OC [MetoclopraMide HCl],scaled lipid accumulation score,[1],inactive: ≤ 0
same,scaled lipid accumulation score,[2],inactive: ≤ 0
CCN(CC)CCNC(=O)c1cc(Cl)c(N)cc1OC [Metoclopramide HCl],scaled lipid accumulation score,library stock concentration: 6.7 mM,inactive: ≤ -0.006
CCN(CC)CCNC(=O)c1cc(Cl)c(N)cc1OC [Metoclopramide hydrochloride],scaled lipid accumulation score,library stock concentration: 5.9 mM,inactive: ≤ -0.001
same,scaled lipid accumulation score,[2],inactive: ≤ 0 and inactive: 0.01
CCOc1ccc2ccccc2c1C(=O)N[C@@H]1C(=O)N2[C@@H]1SC(C)(C)[C@@H]2C(=O)O [Nafcillin Sodium],scaled lipid accumulation score,[1],inactive: ≤ 0
same,scaled lipid accumulation score,[2],inactive: ≤ -0.001
CCOc1ccc2ccccc2c1C(=O)N[C@@H]1C(=O)N2[C@@H]1SC(C)(C)[C@@H]2C(=O)O [Nafcillin sodium salt monohydrate],scaled lipid accumulation score,,inactive: ≤ 0
CCOc1ccc2ccccc2c1C(=O)N[C@@H]1C(=O)N2[C@@H]1SC(C)(C)[C@@H]2C(=O)O [Nafcillin sodium],scaled lipid accumulation score,[2],inactive: ≤ 0
CCOc1ccc2ccccc2c1C(=O)N[C@@H]1C(=O)N2[C@@H]1SC(C)(C)[C@@H]2C(=O)O,scaled lipid accumulation score,[2],inactive: ≤ 0
CN(C)C/C=C(/c1ccc(Br)cc1)c1cccnc1 [Zimelidine dihydrochloride monohydrate],scaled lipid accumulation score,,inactive: 0.454
CN(C)C/C=C(/c1ccc(Br)cc1)c1cccnc1 [Zimelidine dihydrochloride],scaled lipid accumulation score,[3],inactive: 0.434
same,scaled lipid accumulation score,[2],inactive: 0.178
CC(C)(CO)C(O)C(=O)NCCCO (centres undefined) [Panthenol (D)],scaled lipid accumulation score,,inactive: ≤ 0
CC(C)(CO)C(O)C(=O)NCCCO (centres undefined) [Panthenol],scaled lipid accumulation score,library stock concentration: 9.7 mM,inactive: ≤ 0
Cn1cnc2c1c(=O)[nH]c(=O)n2C [Theobromine],scaled lipid accumulation score,,inactive: ≤ 0
same,scaled lipid accumulation score,[2],inactive: ≤ 0
